In all, about 400,000 compounds went through this assay and about 2,200 (0.55%) were called active. Inconclusive means that the source gave no clear call. Such entries were picked first, then a sample of the others. Calls follow the shape of the dose curve; as a rule, active = well fitted inhibition curve with a large enough effect; inconclusive = small, poorly fitted or top-dose-only effect, or another doubt; inactive = no such curve, though single readings can be large or run the other way. Where the call is inconclusive, the potency comes from a doubtful curve fit.
Molecular target: DNA polymerase kappa (Homo sapiens) (UniProt Q9UBT6)
Sequence of UniProt Q9UBT6 (Q9UBT6 whole entry, looked up): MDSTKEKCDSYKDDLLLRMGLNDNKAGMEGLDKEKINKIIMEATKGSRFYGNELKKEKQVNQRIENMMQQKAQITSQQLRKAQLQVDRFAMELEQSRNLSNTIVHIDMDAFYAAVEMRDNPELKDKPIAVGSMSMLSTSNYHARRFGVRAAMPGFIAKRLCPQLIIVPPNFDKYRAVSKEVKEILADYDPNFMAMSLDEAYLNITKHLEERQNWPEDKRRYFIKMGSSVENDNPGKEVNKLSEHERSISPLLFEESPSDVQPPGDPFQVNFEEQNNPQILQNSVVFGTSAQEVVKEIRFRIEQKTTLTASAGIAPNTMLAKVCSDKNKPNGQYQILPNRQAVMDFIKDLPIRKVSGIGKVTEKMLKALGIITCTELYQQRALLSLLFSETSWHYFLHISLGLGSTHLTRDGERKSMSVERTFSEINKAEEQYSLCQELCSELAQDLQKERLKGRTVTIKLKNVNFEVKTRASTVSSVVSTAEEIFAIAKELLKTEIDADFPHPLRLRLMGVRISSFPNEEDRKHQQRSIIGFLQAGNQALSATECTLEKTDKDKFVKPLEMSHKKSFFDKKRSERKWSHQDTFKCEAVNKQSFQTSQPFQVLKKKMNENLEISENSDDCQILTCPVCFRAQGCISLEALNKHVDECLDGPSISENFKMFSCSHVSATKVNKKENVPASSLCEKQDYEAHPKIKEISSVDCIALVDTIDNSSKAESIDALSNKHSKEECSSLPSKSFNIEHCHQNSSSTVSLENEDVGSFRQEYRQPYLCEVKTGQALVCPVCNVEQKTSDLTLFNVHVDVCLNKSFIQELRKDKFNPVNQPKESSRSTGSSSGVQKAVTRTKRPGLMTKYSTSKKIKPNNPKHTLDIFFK
Test: qHTS for Inhibitors of Polymerase Kappa
Conditions: purified Pol kappa, fluorescent DNA synthesis assay, 10 min; series mostly up to 107 µM; activity, negative = inhibition: at the top concentration
Method: The processing and repair of DNA interstrand crosslinks (ICL) in eukaryotic cells are extremely complex, potentially involving multiple DNA repair and damage tolerance pathways, including homologous recombination, nucleotide excision repair, translesion synthesis (TLS), and cell cycle checkpoints.
To that end, in a collaboration between the Oregon Health & Science University and the NIH Chemical Genomics Center a 1536-well high-throughput screen was developed. This fluorescent screen was assayed against the NIH Molecular Libraries Small Molecule Repository (MLSMR) to discover inhibitors of Pol Kappa.
NIH Chemical Genomics Center [NCGC]
NIH Molecular Libraries Probe Centers Network [MLPCN]
Assay Submitter (PI): Stephen Lloyd, Oregon Health & Science University
Three microliters of reagents (buffer in column 3 and 4 as negative control and 10 nM Pol kappa in columns 1, 2, and 5-48) were dispensed into a 1536-well black solid-bottom plate. Compounds (23 nL) were transferred via Kalypsys pin tool equipped with 1536-pin array. The plates were then incubated for 15 min at room temperature, and 1 uL substrate (50 nM final concentration) were then added to start the reaction and kinetically read twice at 0 min and 10 min on the Viewlux reader
% is scaled to controls: 0 for no effect and ±100 for the full control effect; potency is read from the fitted curve at half-maximal effect; tags tell the direction and shape of the fitted curve.

| SMILES | Potency | activity, negative = inhibition |
| --- | --- | --- |
| O=C(C1CCN(c2nnc(-n3cccc3)s2)CC1)N1CCc2ccccc2C1 | inconclusive: 56.2 µM [inhibitor, partial curve] | – |
| CCN(C(=S)Nc1ccc(Oc2ccccc2)cc1)c1ccccc1 | – | inactive: -10.6% |
| CCC1=Nc2cc(C(=O)NCc3ccco3)ccc2Sc2ccccc21 | – | inactive: -10.5% |
| c1nc(NC2CCNCC2)c2cc(-c3ccc4c(c3)OCO4)ccc2n1 | inconclusive: 14.1 µM [inhibitor, partial curve, poor fit] | – |
| O=C(c1ccc(F)c(S(=O)(=O)N2CCOCC2)c1)N1CCN(c2ccc(F)cc2)CC1 | – | inactive: 6.39% |
| COc1ccc(NC(=O)/C(C#N)=C\C=C\c2ccco2)cc1 | inconclusive: 79.4 µM [inhibitor, partial curve, poor fit] | – |
| CC(=O)Nc1ccc2c(O)cc(S(=O)(=O)O)cc2c1 | inconclusive: 56.2 µM [inhibitor, partial curve, poor fit] | – |
| Cn1ccnc1SCC(=O)Nc1sccc1C#N | inconclusive: 89.1 µM [inhibitor, partial curve, poor fit] | – |
| Cc1c(N=Nc2c(-c3ccc([N+](=O)[O-])cc3)[nH]n(C(N)=S)c2=O)cccc1[N+](=O)[O-] | inconclusive: 70.8 µM [inhibitor, partial curve, poor fit] | – |
| Cc1c(NC(=O)c2ccc(Cl)cc2)cc(C(C)C)c(O)c1S(=O)(=O)c1ccc(Cl)cc1 | – | inactive: -27.8% |
| CCOC(=O)C1CCN(c2nc(N)c3c(N)nc(SCC(=O)O)cc3c2C#N)CC1 | active: 35.5 µM | – |
| C=CCn1c(SCC(=O)c2ccc(O)c(O)c2)nnc1-c1cccc(OC)c1 | active: 31.6 µM | – |
| O=C(CCn1c(=O)c2cccn2c2ccc(F)cc21)NCCc1ccccc1 | inactive | – |
| CC(=O)N1CC2(NC(=O)c3ccccc3N2)c2ccccc21 (stereo not drawn) | – | inactive: -6.83% |
| O=C(O)COc1ccccc1/C=N/NC(=O)c1cc2ccccc2cc1O | inconclusive: 79.4 µM [inhibitor, partial curve, poor fit] | – |
| CC(=C/c1ccco1)/C=N/NC(=O)c1ccncc1 | – | inactive: -15.4% |
| C[n+]1cccc2cccc([O-])c21 | inconclusive: 89.1 µM [inhibitor, single point] | – |
| COC(=O)c1c(C)sc(-c2c(-c3ccc4c(c3)OCCO4)[nH]c3[nH]c(=O)[nH]c(=O)c23)c1O | inconclusive: 100 µM [inhibitor, single point] | – |
| CC(=O)N[C@@H](CC(=O)O)C(=O)O | inconclusive: 112 µM [inhibitor, partial curve, poor fit] | – |
| COC(=O)c1ccccc1NC(=O)CSc1nc(N)cc(=O)[nH]1 | active: 50.1 µM | – |
| CC(C)c1ccc(/C=C/c2[nH]c(=O)[nH]c(=O)c2[N+](=O)[O-])cc1 | – | inactive: -7.27% |
| CCN(CC(=O)Nc1ccc(OC)cc1)C(=O)Cc1cccs1 | inconclusive: 89.1 µM [inhibitor, single point] | – |
| CN1CCC[C@H]1CCNc1ccc2c(=O)c3ccccc3n(C)c2c1 | inconclusive: 70.8 µM [inhibitor, single point] | – |

| SMILES | Potency | activity, negative = inhibition |
| --- | --- | --- |
| NC(=O)c1cc[n+](CC2=C(C(=O)[O-])N3C(=O)[C@@H](NC(=O)Cc4cccs4)[C@@H]3SC2)cc1 | inconclusive: 5.32 µM [inhibitor, single point] | – |
| Cc1cccc(OCC(=O)OCc2cc(=O)n3nc(-c4cccs4)sc3n2)c1 | inconclusive: 89.1 µM [inhibitor, single point] | – |
| O=C(Nc1ccc2oc(-c3ccncc3)nc2c1)c1ccccc1 | – | inactive: -17.3% |
| CCCCNC(=O)NS(=O)(=O)c1ccc(C(=O)O)cc1 | – | inactive: 10.9% [at 60.1 µM] |
| O=Cc1cc(N=Nc2cccc(C(=O)O)c2)ccc1O | inconclusive: 79.4 µM [inhibitor, partial curve] | – |
| Cc1cccc(OCCSc2nc3ccc(NC(=O)c4cccs4)cc3s2)c1 | – | inactive: -6.02% |
| NC(=S)NN=Cc1ccc(-c2ccc(S(=O)(=O)Nc3ncccn3)cc2)o1 | active: 20 µM | – |
| CCCCCCCCCCC[C@@H](C[C@@H]1OC(=O)[C@H]1CCCCCC)OC(=O)[C@H](CC(C)C)NC=O | inconclusive: 7.52 µM [inhibitor, partial curve, poor fit] | – |
| Cc1ccc2c(CC(=O)N(Cc3ccc(Cl)cc3)Cc3ccco3)coc2c1 | inconclusive: 89.1 µM [inhibitor, single point] | – |
| Cc1ccc2nc(-c3ccc(O)c(O)c3)cn2c1 | inconclusive: 89.1 µM [inhibitor, single point] | – |
| C=CCCCCCCCCCCCC(O)CC(O)COC(C)=O (stereo not drawn) | inconclusive: 28.2 µM [inhibitor, partial curve, poor fit] | – |
| Oc1ccc(/C=C/c2ccnc3ccccc23)cc1 | – | inactive: -9.64% |
| S=c1[nH]nc(-c2ccccn2)n1/N=C/c1ccco1 | inconclusive: 100 µM [inhibitor, partial curve, poor fit] | – |
| COC(=O)c1cccc(Oc2cccc(C(F)(F)F)c2)n1 | inconclusive: 89.1 µM [inhibitor, partial curve, poor fit] | – |
| CCOC(=O)c1c(-c2ccc(C)o2)csc1NC(=O)COC(=O)c1ccc(NC(N)=O)cc1 | inconclusive: 89.1 µM [inhibitor, single point] | – |
| C=CCSc1nnc(-c2sc(-c3ccccc3)nc2C)n1C | – | inactive: -4.44% |
| CCOC(=O)[C@H]1[C@H]2COc3cc(OC)ccc3[C@@H]2N2C(=O)N(c3cccc(F)c3)C(=O)[C@@]12C | inconclusive: 89.1 µM [inhibitor, single point] | – |
| O=c1cc(-c2ccc(O)c(O)c2)oc2cc(O)c(C3OC(CO)C(O)C(O)C3O)c(O)c12 (stereo not drawn) | active: 20 µM | – |
| Cc1cc(/C=C2\Sc3ccccc3N2C)cc(C)[n+]1CC1CCCO1 (stereo not drawn) | inconclusive: 89.1 µM [inhibitor, partial curve, poor fit] | – |
| Cc1[nH]oc(=O)c1N=Nc1ccc2[nH]c(=O)[nH]c2c1 | inconclusive: 63.1 µM [inhibitor, partial curve, poor fit] | – |
| CC1=C(C(=O)Nc2ccccc2C)C(c2ccc(C)o2)N2C(=O)CSC2=N1 (stereo not drawn) | inconclusive: 89.1 µM [inhibitor, single point] | – |
| CC1OC(Oc2c(-c3cc(O)c(O)c(O)c3)oc3cc(O)cc(O)c3c2=O)C(O)C(O)C1O (stereo not drawn) | active: 50.1 µM | – |
| COc1ccc(CNC(=O)c2cc3c(=O)n4cccc(C)c4nc3s2)cc1 | – | inactive: 8.86% |

| SMILES | Potency | activity, negative = inhibition |
| --- | --- | --- |
| CC[C@H](Cc1c(I)cc(I)c(N)c1I)C(=O)O | inconclusive: 9.01 µM [inhibitor, single point] | – |
| COc1cccc(NC(=O)c2cc(-c3ccco3)nc3ccccc23)c1 | inconclusive: 89.1 µM [inhibitor, partial curve] | – |
| O=S(=O)(Nc1ccccc1)c1ccc(-c2cnc(C3CC3)o2)cc1 | – | inactive: 7.5% |
| C[C@H]1CCC(=O)N([C@H](CC#N)Cc2ccccc2)CC1 | inconclusive: 89.1 µM [inhibitor, single point] | – |
| Cc1nc2sc(C(c3ccco3)N3CCc4ccccc4C3)c(O)n2n1 (stereo not drawn) | inconclusive: 79.4 µM [inhibitor, partial curve] | – |
| COc1ccc(CC(=O)NCC(=O)NC(Cc2ccccc2)C(=O)O)cc1 (stereo not drawn) | inconclusive: 89.1 µM [inhibitor, single point] | – |
| Cc1cc[n+](-c2[nH]c(=O)sc2/C=N/NC([S-])=Nc2ccccc2)cc1 | active: 79.4 µM | – |
| CSc1ncc(C(=O)NCc2ccccc2)c(-c2ccccc2)n1 | inconclusive: 89.1 µM [inhibitor, single point] | – |
| Cc1cccc(NC(=O)/C=C/c2cccs2)n1 | inconclusive: 89.1 µM [inhibitor, partial curve, poor fit] | – |
| COc1cc2nc(CC(O)c3nc4cc(OC)c(OC)cc4[nH]3)[nH]c2cc1OC (stereo not drawn) | active: 10 µM | – |
| CCc1ccccc1N(C)C(=O)c1cnc(N2CCOCC2)c2ccccc12 | – | inactive: -8.48% [at 60.1 µM] |
| Cc1cccc(C)c1NC(=O)C1CCCCN1C (stereo not drawn) | inconclusive: 100 µM [inhibitor, single point] | – |
| O=C1N=c2ccccc2=C1c1sc(Nc2ccc(O)cc2)nc1O | active: 35.5 µM | – |
| CCC(=O)N1CCCc2cc(S(=O)(=O)N3CCC(C(=O)Nc4ccc(F)c(F)c4)CC3)ccc21 | – | inactive: -6.85% [at 60.1 µM] |
| CCc1ccc(NC(=O)COC(=O)c2cccs2)cc1 | inconclusive: 89.1 µM [inhibitor, single point] | – |
| Cc1nnc2ccc(-c3cccc(NC(=O)Cc4cccs4)c3)nn12 | inconclusive: 79.4 µM [inhibitor, partial curve] | – |
| O=C(c1cnc2cc(-c3ccccc3)nn2c1)c1cc([N+](=O)[O-])ccc1O | inconclusive: 89.1 µM [inhibitor, partial curve, poor fit] | – |
| COc1ccc(C2=CC3=C(Br)C(=O)C(C)(O)C(=O)C3=CO2)cc1 (stereo not drawn) | inconclusive: 89.1 µM [inhibitor, single point] | – |
| CC(CCC(C)C(C)(C)C)[C@@H]1CC[C@H]2C3C[C@H](OS(O)(=S)=S)[C@H]4C[C@H](OS(O)(=S)=S)[C@@H](OS(O)(=S)=S)C[C@]4(C)[C@H]3CC[C@]12C (stereo partly drawn) (tested in a mixture with another compound) | active: 20 µM | – |
| Cc1n[nH]c(C)c1Sc1ccccc1N=Cc1cc(Cl)cc([N+](=O)[O-])c1O | inconclusive: 35.5 µM [inhibitor, single point] | – |
| CCOc1ccccc1NC(=O)Cn1c(=O)n(CCCC(=O)NCCOC)c(=O)c2cc(OC)c(OC)cc21 | inconclusive: 89.1 µM [inhibitor, single point] | – |
| COc1ccccc1NC(=O)CCNS(=O)(=O)c1ccc2[nH]c(=O)oc2c1 | inconclusive: 79.4 µM [inhibitor, single point] | – |

From PubChem BioAssay AID588579 (National Center for Advancing Translational Sciences (NCATS), 2011)
